Source: article PMC6212790
Some of the results follow. At the low end of the ranking, values are background and their order means little.

Molecular target: T1, GST-Rok (full length) (UniProt O34857)
T1 sequence: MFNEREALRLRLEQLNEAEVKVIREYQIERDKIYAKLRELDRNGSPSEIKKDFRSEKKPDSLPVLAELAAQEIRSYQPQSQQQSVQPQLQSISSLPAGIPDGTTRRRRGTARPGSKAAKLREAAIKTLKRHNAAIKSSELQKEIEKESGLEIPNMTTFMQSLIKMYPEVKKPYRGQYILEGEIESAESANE
Experiment: protein binding microarray;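 further: rank score from −0.5 (least bound) to 0.5 (best bound)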
Details: Rok is a gene silencer of Bacillus subtilis; high values mean tight binding; most listed sequences are background and not binding sites; double strand, one strand shown

Sequence | binding signal
ATACGGCG | -0.274 E-score
ACACTGAA | 0.0821 E-score
ACGGACCA | -0.198 E-score
TGGAGCAA | -0.0852 E-score
TGTGTTAA | -0.0202 E-score
CGCACTAG | -0.115 E-score
GAGGAGCA | -0.351 E-score
ACACCGTG | -0.19 E-score
CAAAGGAG | -0.224 E-score
CCCGGCCA | -0.361 E-score
ACGCGATG | 0.0909 E-score
TGAGTACA | 0.193 E-score
GAGCTGCA | -0.0813 E-score
CCCCCCAC | -0.431 E-score
AGGGCCCC | -0.456 E-score
TGTCAGAA | 0.0237 E-score
AGGCATTC | 0.0492 E-score
TATGTAAA | 0.328 E-score
AGGAGTAA | -0.0247 E-score
TACTGGCA | 0.106 E-score
TATTACGA | 0.296 E-score
ATTCATTC | 0.173 E-score
CGCTTTGA | -0.038 E-score
ACAGCCGA | -0.173 E-score
AGATGATC | -0.0541 E-score

Sequence | binding signal
CCTGCCCA | -0.326 E-score
CTCCGCAA | -0.0761 E-score
GATGTCCC | -0.307 E-score
CCCATGGA | -0.279 E-score
GGAGTGTA | 0.0672 E-score
GGCGGTAC | -0.21 E-score
AAGGAAAG | -0.377 E-score
CACGCCGG | -0.456 E-score
ATGATAAC | 0.234 E-score
AATAAGCA | 0.121 E-score
GTCTGGTA | 0.241 E-score
CATTCACG | -0.0781 E-score
CGCTTGCA | -0.102 E-score
AAGCGCTG | -0.209 E-score
ATTAATAC | 0.353 E-score
CTGGATCA | 0.141 E-score
TGGTCCAA | -0.0958 E-score
GTCCTTTA | -0.239 E-score
CACGGCCC | -0.351 E-score
ACGACTGA | 0.008 E-score
AGCAGGTC | -0.218 E-score
GATCGTGC | 0.0393 E-score
CAAGACTG | -0.0696 E-score
GAGAATAC | 0.18 E-score
GCGCCCCC | -0.375 E-score

Sequence | binding signal
GTCCGAAA | 0.0729 E-score
GACTCAGC | -0.139 E-score
AGTTGGTG | 0.0888 E-score
AAGCGCGT | -0.078 E-score
GATACACA | 0.225 E-score
CTGCGCAG | 0.0917 E-score
AGAATATG | 0.258 E-score
AGTCAGGC | 0.0406 E-score
CAGACCCA | -0.0858 E-score
CTCACGAC | -0.105 E-score
ATCTCACA | 0.0771 E-score
ATATACGG | 0.0553 E-score
ATAGATAA | 0.297 E-score
GATCCTAC | 0.25 E-score
TGCGTCAA | -0.114 E-score
ATTAAGTG | 0.192 E-score
GACTCCAC | -0.255 E-score
CCCCCATA | -0.356 E-score
CCCCACCG | -0.384 E-score
CGTTCGCC | -0.106 E-score
CGACAGGC | -0.235 E-score
ACAGGTTC | -0.168 E-score
AGGTTTGG | 0.00259 E-score
CACGTAGC | 0.0142 E-score
ATTTTTTG | 0.127 E-score

Sequence | binding signal
CGAACGAA | -0.211 E-score
AGCCAATC | -0.0169 E-score
CATAGCTC | 0.00283 E-score
CGACGCCA | -0.246 E-score
AACAGCCT | -0.0437 E-score
CTCGGGAA | -0.131 E-score
AGCACCGC | -0.132 E-score
CTACCCAC | 0.129 E-score
ATGAATAC | 0.18 E-score
CCTACCCC | -0.268 E-score
AAGTACCC | 0.0392 E-score
ATTGCGAC | 0.129 E-score
TTATATAA | 0.399 E-score
GCGACTCA | -0.167 E-score
CCACAAGC | -0.0749 E-score
GACGCGGA | -0.213 E-score
GTACCAAA | 0.104 E-score
AGCGGCCG | -0.154 E-score
CGATATCA | 0.134 E-score
GCGTCCGA | -0.16 E-score
AATTGGCA | -0.0881 E-score
GACGTCCA | -0.114 E-score
GATGATGA | 0.0824 E-score
TAAATTCA | 0.217 E-score
GCGTCTTA | -0.0703 E-score

Sequence | binding signal
GAAAGCAA | 0.0112 E-score
CTTCTCAA | -0.0416 E-score
AGGTCGTC | -0.208 E-score
AAGTCTGG | -0.0136 E-score
CCTTTTAA | -0.0612 E-score
AGACGCAA | -0.089 E-score
CATGCAAG | -0.088 E-score
CCATCCCG | -0.179 E-score
CATGCATA | 0.215 E-score
GCGCTCTA | 0.0397 E-score
ATGCGGGC | -0.169 E-score
GTAATTAC | 0.421 E-score
ATCTAGGC | 0.0415 E-score
GATACCCC | -0.235 E-score
ATTGCAGA | -0.0117 E-score
GCGCCACC | -0.329 E-score
AAGAGTAG | 0.183 E-score
ACTCGCTA | -0.0121 E-score
AAGTCGGA | -0.198 E-score
CTTCATCA | -0.0921 E-score
CTCGCGAG | -0.0252 E-score
GAATGAGC | -0.114 E-score
ACTATCCT | 0.0634 E-score
AATCAGCT | -0.0409 E-score
CCCCGCGG | -0.348 E-score

Sequence | binding signal
ACAGTCAT | 0.00499 E-score
CTCGTTGC | -0.215 E-score
AGAAGTGG | 0.131 E-score
ATCCTTCA | -0.0679 E-score
GGATAACC | -0.14 E-score
ATCCGGAG | -0.135 E-score
ACCTTAGG | -0.124 E-score
AAGACAAC | -0.1 E-score
CATACGTC | 0.119 E-score
TAGAGTGA | -0.102 E-score
CAGAGTCC | -0.297 E-score
ACCGGATA | 0.0515 E-score
AAGCACAT | 0.0584 E-score
TGTACTAA | 0.0689 E-score
CCTGCTGC | -0.321 E-score
ATTCAGTG | 0.0704 E-score
CGGTCAAG | -0.264 E-score
CCCCATTC | -0.327 E-score
CGCGAAAC | -0.0106 E-score
AAACCGGA | 0.0308 E-score
AAATAGAG | 0.0358 E-score
ATGTCTTG | -0.0447 E-score
ACTGACTC | -0.022 E-score
ATCATAAG | 0.0119 E-score
CGCTACTC | -0.0293 E-score

Sequence | binding signal
CCTATCAG | 0.0668 E-score
CAGATCCA | -0.0843 E-score
GAGATGCA | -0.163 E-score
TAGCGCAA | 0.203 E-score
CATGGGAC | -0.214 E-score
AACAATTC | 0.273 E-score
ACATCGGG | -0.192 E-score
ATACGTCC | 0.0529 E-score
AAGTCGCC | -0.0852 E-score
AAGTTGTG | 0.0359 E-score
CTAACGAG | 0.0146 E-score
ATTACAGA | 0.291 E-score
CCCTCGCA | -0.191 E-score
GCCGCCGA | -0.206 E-score
TCTAAGCA | 0.0166 E-score
CCTATATA | 0.123 E-score
CATGTAAA | 0.233 E-score
ATCAGTAA | 0.231 E-score
AAGCTCGA | -0.0986 E-score
ACTAGCCT | 0.0387 E-score
ATGCAGTC | -0.0871 E-score
GGGGTCTA | -0.358 E-score
